# Screen size: about 310,000 compounds; about 2,200 (0.71%) showed an effect of 50% or more. Effects have a minus sign here. This is one part of the list.
# Target: human ether-à-go-go-related gene (hERG) potassium channel (human, UniProt Q12809)
# Test: primary screen, population patch clamp on CHO cells stably expressing hERG
# Chain of human ether-à-go-go-related gene (hERG) potassium channel (Q12809 whole entry, looked up): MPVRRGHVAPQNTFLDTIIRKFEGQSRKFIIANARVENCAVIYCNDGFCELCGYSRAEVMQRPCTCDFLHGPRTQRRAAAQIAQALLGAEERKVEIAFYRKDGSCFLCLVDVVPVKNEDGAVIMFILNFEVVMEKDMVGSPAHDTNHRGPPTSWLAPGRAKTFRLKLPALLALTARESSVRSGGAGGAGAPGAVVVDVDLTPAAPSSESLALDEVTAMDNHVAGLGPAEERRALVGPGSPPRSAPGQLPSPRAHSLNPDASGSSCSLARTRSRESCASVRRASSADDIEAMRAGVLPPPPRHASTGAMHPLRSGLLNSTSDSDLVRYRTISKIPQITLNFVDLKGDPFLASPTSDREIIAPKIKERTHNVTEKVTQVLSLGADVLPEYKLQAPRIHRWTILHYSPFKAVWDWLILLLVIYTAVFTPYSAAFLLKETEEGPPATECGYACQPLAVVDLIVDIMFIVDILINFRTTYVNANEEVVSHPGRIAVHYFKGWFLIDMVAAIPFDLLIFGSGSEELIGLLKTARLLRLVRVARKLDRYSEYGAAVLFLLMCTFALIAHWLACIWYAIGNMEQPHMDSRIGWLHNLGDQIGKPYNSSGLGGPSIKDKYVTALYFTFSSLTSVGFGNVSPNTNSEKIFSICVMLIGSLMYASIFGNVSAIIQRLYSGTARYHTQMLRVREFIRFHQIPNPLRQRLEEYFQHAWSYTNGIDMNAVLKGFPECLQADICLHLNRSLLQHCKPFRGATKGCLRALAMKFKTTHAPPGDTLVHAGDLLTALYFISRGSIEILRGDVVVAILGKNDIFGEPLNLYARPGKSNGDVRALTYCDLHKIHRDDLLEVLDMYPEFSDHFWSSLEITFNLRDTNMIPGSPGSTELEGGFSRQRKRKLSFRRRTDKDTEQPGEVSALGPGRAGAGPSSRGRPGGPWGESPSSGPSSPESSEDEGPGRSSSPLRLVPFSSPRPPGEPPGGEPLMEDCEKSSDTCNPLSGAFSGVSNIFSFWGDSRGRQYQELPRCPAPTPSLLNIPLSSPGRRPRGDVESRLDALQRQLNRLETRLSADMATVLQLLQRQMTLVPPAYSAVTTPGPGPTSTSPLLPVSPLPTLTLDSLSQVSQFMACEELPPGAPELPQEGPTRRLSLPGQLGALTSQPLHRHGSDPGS
row,SMILES,"hERG current change (%, negative = inhibition) at 1uM"
1,Cc1noc(C)c1C(=O)OC(C)C(=O)N(C)c1ccccc1 (centres unmarked),8.99%
2,O=C(CS(=O)(=O)c1ccccc1)c1cc2cc(F)ccc2oc1=O,14.2%
3,COC(=O)c1c(NC(C)=O)sc(C(=O)Nc2ccccc2F)c1C,5.43%
4,CCOP(=O)(c1ccccc1)c1nc(-c2ccc(F)cc2)oc1N1CCCCC1 (centres unmarked),-2.04%
5,Cc1ccc(N2C(=O)NC(=O)C3(Cc4ccccc4N4CCN(c5ccccc5)CC43)C2=O)cc1 (centres unmarked),2.59%
6,CC1(C)Cc2ccccc2C(NN=C2CCCC2)=N1,-5.24%
7,Cc1ccc(NC(=O)c2sc3ncn(CC(=O)N4CCOCC4)c(=O)c3c2C)c(Br)c1,10.6%
8,Cc1cnc(NC(=O)c2ccccn2)s1,14.6%
9,N#Cc1c(-c2ccccc2)ccnc1Oc1ccccc1,4.33%
10,CC(C)N(C(=O)Cc1ccccc1[N+](=O)[O-])C(C)C,11.7%
11,O=C(Cn1c(=O)oc2ccccc21)Nc1ccc(S(=O)(=O)N2CCCCC2)cc1,10.8%
12,COc1ccc(C2C(C(=O)c3cccs3)=C(O)C(=O)N2Cc2cccnc2)cc1OC (centres unmarked),5.94%
13,CC(C)CCNC(=O)c1ccc2c(c1)N(Cc1ccccc1)C(=O)CS2=O (centres unmarked),2.78%
14,COc1ccc(C(=O)NC2CCCc3ccccc32)cc1S(=O)(=O)N1CCOCC1 (centres unmarked),8.99%
15,CC(=O)Nc1nc2ccccc2n1Cc1ccc(Cl)cc1,7.97%
16,CCC(CO)NCC(O)COCc1ccc2c(c1)OCO2 (centres unmarked),15.8%
17,Cc1ccc(C(c2nnnn2C2CCCC2)N2c3ccccc3CC2C)cc1.Cl (centres unmarked),14.8%
18,Cc1ccc(Cn2ccc(NC(=O)C3C4CCC(C4)C3C(=O)O)n2)cc1 (centres unmarked),5.99%
19,CCN(CC(=O)NCc1cccs1)S(=O)(=O)c1cccc(C(C)=O)c1,12.1%

row,SMILES,"hERG current change (%, negative = inhibition) at 1uM"
1,CC(=O)N1CCc2cc(S(=O)(=O)CCC(=O)Nc3c(C)n(C)n(-c4ccccc4)c3=O)ccc21,-1.5%
2,COC(=O)c1cc(NC(=O)/C=C/c2ccccc2)ccc1O,13.5%
3,Cc1ccc(NC(=O)C2CCCN(C(=O)c3ccc(Cl)cc3)C2)cc1C (centres unmarked),21.1%
4,O=C(NCc1ccc(F)cc1)c1cccnc1,14.5%
5,COC(=O)CN1C(=O)[C@H]2[C@@H](/C=C/c3ccccc3)N3C(=O)CN(CCO)C(=O)[C@@]3(Cc3ccccc3)[C@H]2C1=O,4.37%
6,COC(=O)NC1CCC(CC2CCC(NC(=O)OC)CC2)CC1 (centres unmarked),15%
7,CCOC(=O)C1(Cc2ccccc2)CCCN(C(=O)c2cnn(CC)c2)C1 (centres unmarked),9.7%
8,O=C(NNC(=S)NC(=O)c1cccs1)c1cccnc1,15.7%
9,CCc1ccc(C(C)NC(=O)c2cc(C)oc2C)cc1 (centres unmarked),12.2%
10,Cn1c2ccccc2c2cc(C(=O)NNC(=O)CCl)sc21,-5.75%
11,O=C(CCC(=O)N(CC(=O)NC1CCCC1)Cc1ccccc1)Nc1nccs1,12.2%
12,O=C(Nc1cccc(S(=O)(=O)N2CCCCC2)c1)c1ccco1,9.94%
13,COc1ccc(C2C(C(C)=O)=C(O)C(=O)N2CCc2c[nH]c3ccccc23)cc1 (centres unmarked),10.6%
14,C=CCn1c(C)cc(C2=NNC(=NC(C)(C)C)SC2)c1C,12.2%
15,COc1cc(S(=O)(=O)n2ccc(C)n2)ccc1Cl,-1.94%
16,COCCN(C(=O)COC(=O)/C=C/c1nc2ccccc2s1)c1c(N)n(Cc2ccccc2)c(=O)[nH]c1=O,-4.73%
17,COc1ccc(C(=O)CSc2nnc(CN3CCCC3)n2-c2ccc(F)cc2)c(OC)c1,6.06%
18,COC(=O)c1ccccc1NC(=O)CCc1ccccc1,8.65%
19,O=C(NC1CC1)c1ccc(C2SCC(=O)N2Cc2ccccc2)cc1 (centres unmarked),8.75%

row,SMILES,"hERG current change (%, negative = inhibition) at 1uM"
1,c1ccc(C2CC3CC(c4ccccc4)N2O3)cc1 (centres unmarked),17.1%
2,C/C(CC(=O)Nc1ccc2c(c1)OCCO2)=N\NC(=O)COc1ccc(Cl)c(C)c1,14%
3,CCc1ccc(NC(=O)CCC(=O)c2ccccc2)cc1,10.7%
4,N#Cc1c(N)nc2c(c1-c1cccs1)CCCC2,0.28%
5,CCOC(=O)c1ccc(NC(=O)c2ccc(CN3CCOCC3)cc2)cc1,8.66%
6,O=C1CCCN1c1ccc(S(=O)(=O)NCCOc2ccccc2)cc1,7.44%
7,O=C(NC12CC3CC(CC(C3)C1)C2)N(Cc1ccccc1)Cc1ccncc1,3.57%
8,CC(=O)c1cccc(NC(=O)CC(C)n2ccnc2)c1 (centres unmarked),13.6%
9,CCc1ccc(NC(=O)C(C)OC(=O)c2cccc(S(=O)(=O)N3CCc4ccccc4C3)c2)cc1 (centres unmarked),4.49%
10,O=C(c1cc(-c2ccccc2)nn1-c1ccccc1)N1CCN(S(=O)(=O)c2c(F)cccc2F)CC1,-0.34%
11,O=C(CSc1n[nH]c(-c2cccnc2)n1)Nc1ccc(Cl)cc1,8.99%
12,Cn1nc(C(=O)Nc2ccc(S(=O)(=O)N3CCCCC3)cc2)c2ccccc2c1=O,-0.977%
13,O=C(CSc1n[nH]c(-c2ccccc2)n1)Nc1ccc(Br)cn1,11.4%
14,COC(=O)c1ccc(CSc2nnc3sc4ccccc4n23)o1,6.33%
15,Cl.NCCCCCC(=O)N/N=C/c1ccc2nccnc2c1,14.3%
16,N#CCCN(Cc1cccnc1)C(=S)NCc1ccco1,1.66%
17,COc1cc(NC(=O)COC(=O)CNC(=O)c2ccc(Cl)cc2)c(C)cc1[N+](=O)[O-],11.7%
18,CC(C)c1ccc(OCC(=O)N2CCCCCC2)c(Br)c1,11.7%

# Source: publication PMC4336329 (PLoS ONE, 2015)
